The source gives no read counts; variants with many changes may rest on few reads.
B1: CPEB3 Ribozyme (parent)
chain: UAACAGGGGGCCACAGCAGAAGCGUUCACGUCGCAGCCCCUGUCAGAUUCUGGUGAAUCUGCGAAUUCUGCUGUAUAUCUC

Variants of: B1
Test: self-cleavage, relative activity (ratio to wild type); higher = more cleavage; in vitro, sequencing
Summary of the method: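 After error-prone PCR and barcoding, CPEB3 ribozyme mutant libraries were transcribed with T7 RNA polymerase at 37°C for 5 hours, then given 15 min with DNase I before an EDTA stop, and they cleaved during both steps. Reverse transcription with template switching preceded Illumina sequencing. Relative activity divides a variant's cleaved/total read fraction by the unmutated ribozyme's. At least 5 reads were required per variant, and three batches were averaged.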

| Variant | self-cleavage |
| --- | --- |
| G36A A45U U48C C50G | 0.11 |
| A35U A47G U69A U74C U78A | 0.22 |
| C37U U72A U80C | 0.77 |
| A35U A47G U67A U72C U80C | 0.1 |
| G36A U51C G52U A64G A77G | 0.14 |
| A35U U43C A64G U67C U80C | 0.09 |
| C38A C44U C68U | 0.08 |
| C38U A57C A64U U76C | 0.06 |
| C38A U41A U78C | 0.19 |
| A35U U49A U51A A75C | 0.27 |
| C38U U49C G53U A75G | 0.18 |
| A35U A45U A47G | 0.12 |
| A35G U66C U78G | 1.24 |
| A35U U49A U66A U72A | 0.15 |
| A35U U49C C59U U60A U72C G73A | 0.1 |
| A35U A45U U60C A65U U67C U80A | 0.09 |
| C37U A45G G53A U72A | 0.24 |
| C39A A56G U58C | 0.14 |
| A35U A64C U80C | 0.23 |
| A35U G55U A64G U67C A77U U80C | 0.08 |
| A35G U58C G70A U78C | 0.89 |
| C38U A45U U54A U67C U80C | 0.12 |
| G36A U51G U80A | 0.28 |
| G36A A47G A56G | 0.43 |

| Variant | self-cleavage |
| --- | --- |
| G36C U43C U54G U67G U76C | 0.11 |
| C37U A47G G63U | 0.65 |
| A35G U60C U76A | 1.13 |
| A35G U60G U69A U74A | 0.74 |
| A35U C37U U67C G73U | 0.04 |
| C38U U54A U72C | 0.95 |
| A35G U66C G70U A77G U78C | 0.65 |
| C38A U54A U72C | 0.28 |
| A35U G36A A64G | 0.14 |
| C39A G46C A77G | 0.15 |
| C37U A45G A64G | 0.3 |
| C38U C39G U41A U72A A75U | 0.07 |
| G36C A45U A56G | 0.17 |
| A35U U41C G70U U74C | 0.16 |
| C38U U41A A56G | 0.19 |
| C39A C40U A47U | 0.09 |
| A35U C38A U54C | 0.14 |
| G36A U66A U76C | 0.09 |
| A35U U41C U72C | 0.8 |
| A35U U49C U74A | 0.3 |
| A35U A45C C81G | 0.2 |
| A35U C39U U51C | 0.47 |
| C37U U41C A56G U58C | 0.11 |
| A35U A56G U69C A77G U78C | 0.09 |

| Variant | self-cleavage |
| --- | --- |
| C38U U43C U60C U76C | 0.14 |
| A35U G42A U51C U54C | 0.13 |
| C38U U51C U58G | 0.16 |
| A35G U66C U69C | 0.64 |
| C37U U51C A75U U80A | 1 |
| C38U A45G A56G U58A | 0.17 |
| C38U A56G U67C U74C U76A | 0.15 |
| C38A U41G A47G U80C | 0.26 |
| C37A U43A U51C | 0.07 |
| C37U A45G G52U U58C U69G | 0.11 |
| A35U U60G A65G | 0.1 |
| A35G U58A U69A G73A | 0.9 |
| G36A A57G U58C U60C U74C U76C | 0.05 |
| G36U A47U C50A A64G U66C | 0.12 |
| A35U C50A U72C | 0.3 |
| A35U U72C U78C | 0.6 |
| G36A U58C U76C U80C | 0.12 |
| A35U A45G U51C U54C U72G | 0.13 |
| A35G U72G A77C | 1.22 |
| A35U A45G U51C A56U U80C | 0.13 |
| A35G U69C U74A | 1.22 |
| A35U U58C U60C | 0.2 |
| A35U U41C U43C U67A | 0.07 |
| A35G U69C U72A | 0.5 |

| Variant | self-cleavage |
| --- | --- |
| A35U U54G U76C | 0.32 |
| C37U U51C A64G | 0.53 |
| A35U A45G U67C | 0.49 |
| A35U A45G A56U A57U | 0.32 |
| C37U G52A A77C | 0.54 |
| C38U U69G U76A | 0.5 |
| C37U G46C U76C | 0.17 |
| G36A A75G U78C | 0.07 |
| C38U U49C U66C | 0.38 |
| A35U A65G U74C | 0.22 |
| G36A U51A U76C | 0.22 |
| C38U U48C A57G | 1.15 |
| A35U A47G U48G | 0.2 |
| C39A U41C A57G U76C | 0.15 |
| A35U U51A A56G U69C A75G C81U | 0.16 |
| C37U U48C U60A | 0.18 |
| G36U C44A G53U A65G | 0.1 |
| A35U C39A A47C A57G | 0.14 |
| A35U C40U A64U A75U U78C | 0.05 |
| C37G A75G U80G | 0.52 |
| A35U U48C U51A U78C | 0.12 |
| C39A U43C A64G U78C | 0.06 |
| C38U G42A C62A A64U | 0.13 |
| G36A U51C U60A U66C | 0.29 |

| Variant | self-cleavage |
| --- | --- |
| A35U U43C A45U U51C | 0.06 |
| C37U U54A U80C | 0.84 |
| C38A U43C U48C U60C U78A | 0.08 |
| C38G U49C G63A G73C | 0.06 |
| A35G U60A C71A U72G U76A | 0.67 |
| A35U U43A G53A G61A | 0.59 |
| A35U U72C U76C | 0.41 |
| A35U U58C U67A U69A U80A | 0.09 |
| A35U C62G U78C | 0.04 |
| A35U A56U U60C U72G U76C | 0.1 |
| A35U U48C U66C | 0.18 |
| A35U A64G U72C U74A U76C | 0.28 |
| A35U U49A A77G U78C | 0.11 |
| C37U U49C U67C | 0.11 |
| C37U A45G U60C A64C C79U | 0.04 |
| A35U U66C U67C | 0.11 |
| A35G U66C A75U U78C | 1.28 |
| A35U U67A U72G | 0.1 |
| A35G U58C A77U U78A | 1.24 |
| G36A U43G U58C | 0.05 |
| C38U U49C U58C G63A | 0.14 |
| G36C U60A U67C U74A | 0.13 |
| C37U U72A A75U | 0.55 |
| C37U G52U U58C U69G | 0.14 |

| Variant | self-cleavage |
| --- | --- |
| A35U G63A U66A | 0.48 |
| C39A A45G A47G | 0.19 |
| C38A C59G U69A A75G | 0.14 |
| A35U G42A G53A | 0.45 |
| C38U A45G U78C | 0.47 |
| A35U G46C A64G | 0.14 |
| C38U A56U U76C | 0.36 |
| C38G U67C G70U | 0.07 |
| C38A U49C U80A | 0.13 |
| A35U U43A A45G A47G | 0.15 |
| A35U A45G U69A | 0.13 |
| C37U A45C U72A | 0.09 |
| A35G U58C U69C U76C | 0.64 |
| A35U U43A A45G | 0.43 |
| A35U U51C U54C | 0.26 |
| G36A A47G U78C | 0.09 |
| C38A A57C A64G U69C | 0.1 |
| A35U U51A U60C A65U | 0.14 |
| G36A U49C U51C A56G A75G | 0.07 |
| G36A A64U U74C A75U | 0.48 |
| C38U U48C U67A U76C | 0.31 |
| G36A A56G U60C G73A | 0.17 |
| A35U U58C A75G | 0.16 |
| A35U A56U U78C | 0.41 |

| Variant | self-cleavage |
| --- | --- |
| C37G A45G A47G | 0.19 |
| A35G U58C C71A | 0.45 |
| C37G U43C C79U | 0.27 |
| C38U U51A U80C | 0.26 |
| A35U U54G A64U U67C G70A U74C | 0.08 |
| G36U A64G A65G | 0.32 |
| A35U A65U U69A | 0.1 |
| C38A C62G U76C C81A | 0.08 |
| C37U U54C U67A | 0.18 |
| A35U U41A G52A A65G U80C | 0.15 |
| A35U C39U U69A U72A | 0.05 |
| A35U U41A U67C | 0.13 |
| C39A U41A U76A | 0.08 |
| A35U U41A A47G U54C | 0.07 |
| G36A A45G C81U | 0.41 |
| A35U A64G U76C | 0.3 |
| A35U G53C U69A U80C | 0.47 |
| A35U U54G A57G | 0.15 |
| A35U U51C A65C | 0.44 |
| C38U A47G U48C U54A A77U | 0.13 |
| A35U A47U U60C U72A | 0.08 |
| A35U U43C U66C | 0.45 |
| A35U U41A U43A | 0.16 |

— the RNAGym collection of RNA variant scans (doi:10.1093/nar/gkz1192)
